# Results from the supplement of paper PMC11417369.
# ± gives the standard deviation of the averaged measurements. Some of the results follow.
# Tested on: PfAP2-LT AP2 domain (GST-tagged)
# Assay: gcPBM binding intensity (ln(normalized median fluorescence intensity)); higher = stronger DNA binding
# In short: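 Probes on an Agilent 4 × 180k array were primer-extended, double-stranded and 36 bp long, taken from intergenic genomic regions, with negative controls added. GST-tagged P. falciparum DNA-binding domains from E. coli, about 25 μg on average, were applied to the array for 1 h in 1× PBS containing 1% milk, 0.2 mg/ml BSA, 0.5% salmon testes DNA and 0.03% Triton X-100. Binding intensity, obtained after Alexa488 anti-GST antibody detection and a 488 nm scan, is the highest Masliner-normalised natural-log median intensity across replicate spots of either probe orientation.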
row,Sequence,gcPBM binding intensity (ln)
1,AAAAAAATATATATATGTACATAACTTTGTTGTGAT [XGTACX_site5243],8.87 ± 0.46
2,TGTTAAATTATTTATCAGATTATTATTTGTAAATAA [CACACA_negctrl_site1535],8.17 ± 0.35
3,TTTGAACATTTTGCAAGTACAAAAAAATAATATATC [XGTACX_site8079],8.65 ± 0.42
4,TATATATATATATATACACACATATATATATTTTTC [CACACA_site3983],9.78 ± 0.29
5,CATTAAACCGTGGGAGCACACACACCCACCCACCCA [CACACA_site8000],9.57 ± 0.2
6,AATTTAAAGAATTGTAGTACAATGAAATATATATAA [XGTACX_site7970],8.74 ± 0.52
7,ATCATTATATTATGGTGTACCCATATATAATTATCA [XGTACX_site551],8.69 ± 0.51
8,AACAATGGATTATTCACACATAAAAAAATTCACATT [CACACA_site5437],8.9 ± 0.37
9,AATACCTATGGAATTAATAATATGTGTACAGACACA [TGCATGCA_negctrl_site547],8.72 ± 0.42
10,GTTATTGTAAAAAGATTACACACGTTCTATATACTT [CACACA_site2473],9.04 ± 0.39
11,GGAATATGTATATTTTGTACGTATACATTTTTTGGG [XGTACX_site7681],9.12 ± 0.25
12,GATATATTTTATATATGTACATACAGTGGTAAATAT [XGTACX_site1324],8.89 ± 0.35
13,TTTATACAAAAAAACAAAATCAAACAAAAAAAAAAA [CACACA_negctrl_site252],8.46 ± 0.57
14,ATGTAATGTTATGTTATGTTTTTTTTTTTTTTGTGT [CACACA_negctrl_site1264],9.02 ± 0.53
15,AAAATTATATATTTTAGTACATAAAATATTGACATA [XGTACX_site2581],8.45 ± 0.42
16,TTTTAAACAGGACACACACACATATATATATATATA [CACACA_site4664],9.96 ± 0.17
17,AGTACGTAAATTATAATACACACTATAGGATATTCT [CACACA_site2559],9.12 ± 0.43
18,TTTTCTACATCTTGTTGTACGAAAAATAAAAAAAAT [XGTACX_site4620],8.3 ± 0.34
19,ATATTATAATATTTATGTACATATATATAATATATA [XGTACX_site1633],8.61 ± 0.35
20,AATATATATTTATAAACACACACCAAAATTTGTGCT [CACACA_site3091],9.18 ± 0.42
21,ACATTTTGTGTTTTAGCACACAATTTTTCAGAATAT [CACACA_site2961],8.92 ± 0.44
22,TATTAGCATGTTATTACACACAATATAAGATATATA [CACACA_site6775],8.84 ± 0.31

row,Sequence,gcPBM binding intensity (ln)
1,AAAATATTTATGTATGCATGTTGTAATATTTCTTTA [TGCATGCA_site296],8.71 ± 0.38
2,TAAAAAAAAACAGAAACACACATTATTCATATATAT [CACACA_site2049],8.85 ± 0.45
3,ATTTCCCCTTTTTATTGTACATTTTTATTTGTTACT [XGTACX_site4845],9.34 ± 0.54
4,TATGCTATATATTTAGTGCATATATATAACTTTTAT [GTGCAC_site9902],8.59 ± 0.35
5,TGTATAAATATATATACACACATATTTATATATATA [CACACA_site755],8.77 ± 0.34
6,TATATATGTATCATTACACACATGTATACTTATTTG [CACACA_site4138],9.26 ± 0.38
7,ATATATGTGCCCATATATATATATATAAATATATGT [GTGCAC_negctrl_site226],9.21 ± 0.32
8,TACATTTGTATAAATAGTACGCGAAAACAAAAAAAA [XGTACX_site6246],8.94 ± 0.46
9,TCATAAATGAAACACACACACACATCTGGATACCCC [CACACA_site3332],9.925 ± 0.0071
10,ATTATATATATAAAGTGTACAAAAAAAAAAAAAAAA [XGTACX_site3134],8.66 ± 0.61
11,AATCAATATAAATAAAATTTTTAATTTTAACCCTAA [GTGCAC_negctrl_site266],8.28 ± 0.47
12,AATGTCCTTATTTGCACACACACATATAAGAAATTT [CACACA_site3186],9.51 ± 0.36
13,ATTTGAGAGTTAACAAAATATTTGGCCATCTTTTAT [XGTACX_negctrl_site447],8.69 ± 0.49
14,TATAATAAATCATATGCATGTTGAAAAAAAAAAAAA [TGCATGCA_site923],8.55 ± 0.44
15,AACTCATAGCGGTGTGCACACAAAAAATTAAAAAAA [CACACA_site3033],9.55 ± 0.54
16,TATAAAATAAAAATTATATATTTTAAATGGATACAA [TGCATGCA_negctrl_site284],8.3 ± 0.59
17,AAAACAAATTAAAATCGTACAATTATAATGTTAATG [XGTACX_site180],8.73 ± 0.49
18,ATAGCTAAGATAGCTTGTACATATATTTACATATAT [XGTACX_site3694],8.99 ± 0.52
19,ATTTAAATGAAAAAATGTACAAAAAGATTTAAACTC [XGTACX_site1489],9.01 ± 0.49
20,ATGCACATTTATAAAAGTACATGTATGTAATATGTT [XGTACX_site830],9.02 ± 0.49
21,TTGTATTTACACGATCAACCAAATGGTATATAAATA [GTGCAC_negctrl_site167],8.61 ± 0.45
22,ATATGTAGTTTTTACCTAATAAAAAAAAAAAAAAAA [CACACA_negctrl_site672],8.48 ± 0.58
